Measured values taken from the supplement of paper PMC12217912.
This is one part of the list. Sequences were assembled here from the parent chain. Values near 0.05 are background.

B1: TEV protease; numbered along this chain (parent)
chain: MGESLFKGPRDYNPISSSICHLTNESDGHTTSLYGIGFGPFIITNKHLFRRNNGTLVVQSLHGVFKVKDTTTLQQHLVDGRDMIIIRMPKDFPPFPQKLKFREPQREERICLVTTNFQTKSMSSMVSDTSCTFPSGDGIFWKHWIQTKDGQCGSPLVSTRDGFIVGIHSASNFTNTNNYFTSVPKNFMELLTNQEAQQWVSGWRLNADSVLWGGHKVFMVKPEEPFQPVKEATQL

Variants of: B1
Experiment: raw area under fraction-flipped curve 0-4 h after induction (AUC4h, not background-subtracted), DNA-recorder readout of cleavage of the substrate (dimensionless); higher = more cleavage of the substrate by the protease variant
Conditions: temperature: 34 °C; time window: 0-4 h after rhamnose induction
Protocol: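 In vivo DNA recorder in E. coli TOP10(DE3) ΔrhaA at 34 °C. Each TEVp single-site mutant (parent TEVp 0) is paired with a single-site variant of the 7-mer TEVs (canonical ENLYFQ|S). The substrate sits between flexible linkers in a Bxb1-sfGFP-TEVs-SsrA fusion, so cleavage stabilises Bxb1 and speeds flipping of a recombination array, read by NGS. The value is the raw area under the fraction-flipped curve over 0-4 h after rhamnose induction (AUC4h), with ≥20 reads per time point. It is not background-subtracted; inactive controls average about 0.047.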
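Also: Bxb1 expression induced with 0.2% (w/v) L-rhamnose at OD600 near 0.5, cultures sampled hourly, flipped fraction per protease–substrate barcode pair counted by paired-end Illumina sequencing.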

Variant	area with substrate ENLYFQA	area with substrate ENLYFQC	area with substrate ENLYFQD	area with substrate ENLYFQG	area with substrate ENLYFQH	area with substrate ENLYFQI	area with substrate ENLYFQK	area with substrate ENLYFQL	area with substrate ENLYFQM	area with substrate ENLYFQN	area with substrate ENLYFQP	area with substrate ENLYFQQ	area with substrate ENLYFQR	area with substrate ENLYFQS	area with substrate ENLYFQT	area with substrate ENLYFQV	area with substrate ENLYFQW	area with substrate ENLYFQY	area with substrate ENLYFQE	area with substrate ENLYFQF
MGESLFKGPRDYNPISSSICHLTNESDGHTTSLYGIGFGPFIITNKHLFRRNNGTLVVQSLHGVFKVKDTTTLQQHLVDGRDMIIIRMPKDFPPFPQKLKFREPQREERICLVTTNFQTKSMSSMVSDTSCTFPSGDGIFWKHWIQTKDGQGGSPLVSTRDGFIVGIHSASNFTNTNNYFTSVPKNFMELLTNQEAQQWVSGWRLNADSVLWGGHKVFMVKPEEPFQPVKEATQL [C152G]	0.0653	0.059	0.0584	0.0545	0.0635	0.0647	0.0575	0.0534	0.0574	0.0624	0.0599	0.0569	0.0607	0.0604	0.0553	0.0579	0.048	0.0507		
MGESLFKGPRDYNPISSSICHLTNESDGHTTSLYGIGFGPFIITNKHLFRRNNGTLVVQSLHGVFKVKDTTTLQQHLVDGRDMIIIRMPKDFPPFPQKLKFREPQREERICLVTTNFQTKSMSSMVSDTSCTFPSGDGIFWKHWIQTKDGQEGSPLVSTRDGFIVGIHSASNFTNTNNYFTSVPKNFMELLTNQEAQQWVSGWRLNADSVLWGGHKVFMVKPEEPFQPVKEATQL [C152E]	0.0598	0.0626		0.0538	0.0404	0.0442	0.0534	0.0541	0.0643	0.0489		0.0586	0.0673	0.0603		0.0599	0.0512		0.0588	0.0549
MGESLFKGPRDYNPISSSICHLTNESDGHTTSLYGIGFGPFIITNKHLFRRNNGTLVVQSLHGVFKVKDTTTLQQHLVDGRDMIIIRMPKDFPPFPQKLKFREPQREERICLVTTNFQTKSMSSMVSDTSCTFPSGDGIFWKHWIQTKDGQFGSPLVSTRDGFIVGIHSASNFTNTNNYFTSVPKNFMELLTNQEAQQWVSGWRLNADSVLWGGHKVFMVKPEEPFQPVKEATQL [C152F]	0.0615	0.0439	0.0628	0.0521	0.0559		0.0684	0.0531	0.0627	0.0359		0.0191	0.0623	0.0605	0.06	0.0391	0.0564	0.054	0.052	0.0516
MGESLFKGPRDYNPISSSICHLTNESDGHTTSLYGIGFGPFIITNKHLFRRNNGTLVVQSLHGVFKVKDTTTLQQHLVDGRDMIIIRMPKDFPPFPQKLKFREPQREERICLVTTNFQTKSMSSMVSDTSCTFPSGDGIFWKHWIQTKDGQDGSPLVSTRDGFIVGIHSASNFTNTNNYFTSVPKNFMELLTNQEAQQWVSGWRLNADSVLWGGHKVFMVKPEEPFQPVKEATQL [C152D]	0.0588	0.0606				0.0624	0.0573	0.0562	0.0533	0.0571	0.069			0.0583		0.0548	0.0538			0.0452
MGESLFKGPRDYNPISSSICHLTNESDGHTTSLYGIGFGPFIITNKHLFRRNNGTLVVQSLHGVFKVKDTTTLQQHLVDGRDMIIIRMPKDFPPFPQKLKFREPQREERICLVTTNFQTKSMSSMVSDTSCTFPSGDGIFWKHWIQTKDGQIGSPLVSTRDGFIVGIHSASNFTNTNNYFTSVPKNFMELLTNQEAQQWVSGWRLNADSVLWGGHKVFMVKPEEPFQPVKEATQL [C152I]	0.0507	0.0566		0.0496	0.0546	0.0633	0.048	0.0493	0.0653	0.0268	0.0635		0.0614	0.0612	0.0477	0.0449	0.0567	0.0624		0.0508
MGESLFKGPRDYNPISSSICHLTNESDGHTTSLYGIGFGPFIITNKHLFRRNNGTLVVQSLHGVFKVKDTTTLQQHLVDGRDMIIIRMPKDFPPFPQKLKFREPQREERICLVTTNFQTKSMSSMVSDTSCTFPSGDGIFWKHWIQTADGQCGSPLVSTRDGFIVGIHSASNFTNTNNYFTSVPKNFMELLTNQEAQQWVSGWRLNADSVLWGGHKVFMVKPEEPFQPVKEATQL [K148A]	0.125	0.0751	0.0756	0.0836	0.0661	0.0574	0.0863	0.0769	0.104	0.0694		0.0672	0.0675	0.101	0.0582	0.0626	0.0734		0.0622	0.0738
MGESLFKGPRDYNPISSSICHLTNESDGHTTSLYGIGFGPFIITNKHLFRRNNGTLVVQSLHGVFKVKDTTTLQQHLVDGRDMIIIRMPKDFPPFPQKLKFREPQREERICLVTTNFQTKSMSSMVSDTSCTFPSGDGIFWKHWIQTKDEQCGSPLVSTRDGFIVGIHSASNFTNTNNYFTSVPKNFMELLTNQEAQQWVSGWRLNADSVLWGGHKVFMVKPEEPFQPVKEATQL [G150E]	0.0368	0.061	0.0627	0.0759	0.0479		0.0609	0.0529		0.0517	0.0586	0.0624	0.058	0.0578	0.0613	0.0537	0.0522	0.067		0.0508
MGESLFKGPRDYNPISSSICHLTNESDGHTTSLYGIGFGPFIITNKHLFRRNNGTLVVQSLHGVFKVKDTTTLQQHLVDGRDMIIIRMPKDFPPFPQKLKFREPQREERICLVTTNFQTKSMSSMVSDTSCTFPSGDGIFWKHWIQTKDWQCGSPLVSTRDGFIVGIHSASNFTNTNNYFTSVPKNFMELLTNQEAQQWVSGWRLNADSVLWGGHKVFMVKPEEPFQPVKEATQL [G150W]	0.052	0.0535	0.0576	0.059	0.0536	0.0608	0.0574	0.0475	0.0528	0.0416	0.0608	0.0631	0.056	0.0592	0.0599		0.0502	0.0581	0.0392	0.0655
MGESLFKGPRDYNPISSSICHLTNESDGHTTSLYGIGFGPFIITNKHLFRRNNGTLVVQSLHGVFKVKDTTTLQQHLVDGRDMIIIRMPKDFPPFPQKLKFREPQREERICLVTTNFQTKSMSSMVSDTSCTFPSGDGIFWKHWIQTKMGQCGSPLVSTRDGFIVGIHSASNFTNTNNYFTSVPKNFMELLTNQEAQQWVSGWRLNADSVLWGGHKVFMVKPEEPFQPVKEATQL [D149M]	0.0991	0.105	0.0623	0.0861		0.059	0.0562	0.0772	0.0748	0.0576		0.0628	0.0508	0.0894	0.0539		0.0634			0.0606
